Source: US20250213529A1, “5-METHOXY-N.N-[…][…] THE TREATMENT OF PSYCHOMOTOR RETARDATION” (GH RESEARCH IRELAND LIMITED, priority 2022, published 2025)

Tested on: patients with treatment-resistant major depressive disorder (TRD)
Assay: Phase 1/2 clinical trial in patients suffering from TRD
Conditions: for Patients experiencing at least one ADR: n=4

COc1ccc2[nH]cc(CCN(C)C)c2c1 [5-MeO-DMT] was tested, and the “Changes in safety laboratory analyses, vital signs, psychiatric safety assessments, measures of cognitive function” value (Part A and Part B) was “No clinically significant changes”, the “Severity and outcome of ADRs” value (Part A, 12 mg and 18 mg groups) was “all of which were mild and resolved spontaneously” and the “Patients experiencing at least one ADR” value (Part A, single 12 mg inhaled) was 3 of 4. For the same molecule, the “Patients experiencing at least one ADR” value (Part A, single 18 mg inhaled) was 3 of 4 and the “Outcome of ADRs” value (Part B, IDR) was “All ADRs resolved spontaneously”.
